# Results taken from FireProtDB (doi:10.1074/jbc.m109.001289).
# Conditions: Homo sapiens, pH 7.3, Thermal, sodium phosphate 25 mM, transition: 2, reversible: yes
substance,measurement,setting,value
Fibroblast growth factor 1 wild type (sequence not shown),unfolding enthalpy (calorimetric),CD,64.9 kcal/mol and 67.7 kcal/mol and 67.6 kcal/mol
same,Tm,fluorescence,39.8 °C
same,unfolding enthalpy (calorimetric),fluorescence,66.2 kcal/mol

# Several values for one entry are separate records, joined by “and”; a condition that tells them apart may be missing. Identical values can stand only once.
